Out of some 150,000 compounds screened, about 540 (0.36%) showed an effect of 50% or more. The list shows a part of the results.

The test concerns Plasmodium falciparum. The test is described as follows: Primary screen in NF54 nanoGlo assay, in single point, at 2uM, 72h; a lower Z score goes with more inhibition. Type of test: functional, Erythrocyte. The following applies: timepoint 72 hour.
Turning to `COc1ccc(CCNC(=O)CCc2ccc(-c3ccc(Cl)cc3)n2-c2ccc(OC)cc2)cc1`, the “% Inhibition” value is recorded as -3% and the Z score worked out at 0.44.
For the molecule `CCOc1cccc(-n2cc(-c3ccccc3)nc2NC(=O)CN(C(C)C)S(=O)(=O)c2ccc(C)cc2)c1`, the “% Inhibition” value is given as -11% and the Z score is recorded as 1.6.
Turning to `CCc1cccc(OCCN(CC)C(=O)c2cnc(C)nc2O)c1`, the “% Inhibition” value was -6% and the Z score amounted to 0.59.
Regarding `Cc1cc(C)c(C#N)c(N2CC[C@@]3(CCCN(CC4CC4)C3=O)C2)n1`, the “% Inhibition” value is 2% and the Z score was -0.37.
Regarding `COc1ccc(Cc2n[nH]c(CCn3c(C)cccc3=O)n2)cc1`, the “% Inhibition” value is on record as -11% and the Z score stood at 1.98.
`C[C@]1(NC(=O)c2ccc(-c3cscn3)cc2)CCS(=O)(=O)C1`: the “% Inhibition” value was -2% and the Z score stood at 0.21.
On to `C=C(C)C1OCCC1CNC(=O)NC1c2cccc(F)c2CCC1C` (stereo unspecified), for which the “% Inhibition” value was 1% and the Z score is -0.16.
As for `O=C(NC1(C(=O)O)CCCCC1)c1cnc2ccccc2n1`, the “% Inhibition” value is -10% and the Z score turned out to be 1.26.
The matching figures for `Cc1ccc(S(=O)(=O)N(CC(=O)N2CCc3sccc3[C@@H]2COc2ccc(Cl)c(C)c2)CC2CC2)cc1`: -21% and 2.
The matching figures for `CCOC(=O)N1CCN(C(=O)c2ccc(NCc3ccc(F)cc3)c(S(=O)(=O)Nc3cccc(OC)c3)c2)CC1`: 0% and 0.03.
As to `O=C(Cn1cnc2ccccc2c1=O)Nc1nc(CCC2CCCC2)n[nH]1`, the “% Inhibition” value was -5% and the Z score amounted to 0.49.
With `CCCN(CCO)C(=O)Nc1ccc(OC)c(C(=O)NC)c1`, the “% Inhibition” value was -3% and the Z score is reported as 0.36.
As for `CC(NC(=O)C1CCCC(C(=O)O)C1)c1ccco1` (stereo unspecified), the “% Inhibition” value is -12% and the Z score worked out at 1.53.
Take `CC1(C)C2CCC1(CS(=O)(=O)O)C(=O)C2.CCC(C)(c1ccccc1)C1CNc2ccccc21` (stereo unspecified): the “% Inhibition” value is recorded as -17% and the Z score is recorded as 2.69.
On to `COc1ccc(C(=O)N2CCCN(c3nc4c(s3)c(C)nn4-c3cccc(C)c3)CC2)c(OC)c1`, for which the “% Inhibition” value is on record as 5% and the Z score is -0.84.
The matching figures for `Cc1ccc2ncc(-c3ncccc3C(=O)N3CCCC3)cc2c1`: -6% and 1.18.
For `Cn1cc([C@H]2CCN(CC3CCC4(CC3)OCCO4)C2)cn1`, the “% Inhibition” value was 5% and the Z score is -0.8.
Turning to `Cn1ccc(CNCc2c(Br)cc(F)c(F)c2N2CCCCC2)n1`, the “% Inhibition” value was 4% and the Z score is listed as -0.75.
With `CC(C)CN1CCN(Cc2ccn(CC(F)(F)F)n2)CC1=O`, the “% Inhibition” value is on record as -8% and the Z score came to 1.13.
The matching figures for `CNC(=O)NC(=O)CNc1cc(-c2ccc(C#N)s2)ccc1C`: 16% and -2.41.
For `CC(NC(=O)N1CC2C3CCC(O3)C2C1)c1cccc(Cl)c1` (stereo unspecified), the “% Inhibition” value was 5% and the Z score is recorded as -0.54.
Take `O=S(=O)(c1ccc2c(c1)OCCO2)N1CC[C@H](Oc2cnc3ccccc3n2)C1`: the “% Inhibition” value is given as -7% and the Z score is reported as 0.99.
On to `O=C(Nc1ccc(OC[C@H]2CCOC2)cc1)c1scnc1C1CC1`, for which the “% Inhibition” value is -3% and the Z score is recorded as 0.32.
As to `Cc1nc(NCc2ccccc2Cl)sc1S(N)(=O)=O`, the “% Inhibition” value is recorded as -9% and the Z score came out at 1.47.
`NC(=O)CN1CCCN(C(=O)C2(Cc3ccccc3)CCC2)CC1`: the “% Inhibition” value is given as -10% and the Z score is given as 1.78.
Take `Cc1cc(C(=O)NC[C@@H](c2ccco2)N2CCCC2)n(C)n1`: the “% Inhibition” value was -10% and the Z score is recorded as 1.17.
As for `CCc1nc(CN(C)Cc2cc3cc4c(cc3nc2-c2ccc(F)cc2)OCO4)no1`, the “% Inhibition” value is -10% and the Z score came to 1.27.
The matching figures for `C#CC[C@H](C)NC(=O)N(C)CCCN1CCCC1`: -1% and 0.19.
The matching figures for `Cc1cc(C(=O)N2CCC([C@]3(CCC(C)C)NC(=O)N(Cc4ccccn4)C3=O)CC2)no1`: 7% and -1.23.
`C[C@H]1c2ccsc2CCN1C(=O)Nc1ccc(F)c(NC(=O)c2ccsc2)c1`: the “% Inhibition” value stood at 5% and the Z score is -0.98.
`Cc1c(NCC(C)(C)C)cccc1C(=O)N1CC(O)(c2cnn[nH]2)C1`: the “% Inhibition” value was -5% and the Z score is 0.8.
Consider `COC(=O)N1CCCC[C@H]1C(=O)N1CCc2[nH]c(-c3ccccc3)nc2C1`, for which the “% Inhibition” value came out at 1% and the Z score is reported as -0.14.
Take `CNS(=O)(=O)CCNCc1ccc(C)c(Cl)c1`: the “% Inhibition” value is reported as -10% and the Z score came to 1.87.
Turning to `C[C@@H]1CN(C2CCOCC2)CCN1C(=O)Cn1cc2ccccc2n1`, the “% Inhibition” value is listed as -10% and the Z score amounted to 1.58.
With `Cc1nn(CC(=O)N(C)[C@@H](C)c2ccon2)c(C)c1Cl`, the “% Inhibition” value is listed as -28% and the Z score is reported as 2.74.
The matching figures for `COCc1ccccc1S(=O)(=O)N1CCN(c2nc[nH]n2)CC1`: -8% and 1.24.
For `Fc1ccc(-c2noc(CN3CCC4(CC3)OCCO4)n2)cc1`, the “% Inhibition” value was -2% and the Z score turned out to be 0.34.
As to `O=C(CC1CCCCCC1)N1CCCC1`, the “% Inhibition” value was -16% and the Z score amounted to 2.05.
`COC(=O)c1ccnc(N(C)C[C@H](C)c2nccs2)n1`: the “% Inhibition” value is listed as -16% and the Z score is given as 1.94.
`c1ccc(-c2cnn3cc(CN4CCCC4)cnc23)cc1`: the “% Inhibition” value was -7% and the Z score amounted to 1.02.
For the molecule `CCCN(CCOC)C(=O)c1cc(CC)[nH]c(=O)c1`, the “% Inhibition” value is recorded as -12% and the Z score is 2.35.
`CCN(CC)c1ccc(C2=Nc3ncnn3/C2=N/Cc2ccccc2)cc1`: the “% Inhibition” value was -14% and the Z score was determined as 1.99.
The matching figures for `O=C(Nc1ccc(N2CCCC2)c(F)c1)C(=O)Nc1ccon1`: 35% and -5.06.

Broadly, the % Inhibition is the drop in the measured response relative to a control, in per cent.

For the origin of these results see ChEMBL document CHEMBL4888484, “Replenishing the malaria drug discovery pipeline: Screening and hit evaluation of the MMV Hit Generation Library 1 (HGL1) against asexual blood stage Plasmodium falciparum ,using a nano luciferase reporter read-out” (2022).
